From the antibiotic and cytotoxicity screens of Wong et al. (2023) come the findings set out here.

The other results are listed elsewhere or left out.

The test system of experiment [1] is HSkMC (human skeletal muscle cells). In words: cytotoxicity call (relative viability < 0.9). To be noted: 10 µM.
Experiment [2] relates to HepG2. In words: cytotoxicity call (relative viability < 0.9). Particulars: 10 µM.
Experiment [3] deals with S. aureus RN4220. Put plainly: growth inhibition call (relative growth <= 0.2). Particulars: 50 µM.

For the compound `COCCCNC(=O)[C@@]1(Sc2ccc(C)cc2)CC(=O)N(Cc2ccccc2Cl)[C@@H]1c1ccc(CO)cc1`, the cytotoxicity call in experiment [1] and in experiment [2] was “inactive” throughout. For the same compound, in experiment [3], the growth inhibition call is “inactive”.
Turning to `C[C@@H]1CN([C@H](C)CO)S(=O)(=O)c2ccc(-c3cccnc3)cc2O[C@@H]1CN(C)C(=O)NC1CCCC1`, the cytotoxicity call in experiment [1] and in experiment [2] was “inactive” throughout. For the same compound, the growth inhibition call in experiment [3] is “inactive”.
On to `CC[C@@]12O[C@H]3[C@@H](O)[C@H]4C[C@@H]3[C@@H]1[C@@H]4C(=O)N2C`, for which the cytotoxicity call in experiment [1] and in experiment [2] was “inactive” throughout. Besides, in experiment [3], the growth inhibition call was “inactive”.
Turning to `COc1cccc(CNC(=O)C[C@H]2C=C[C@@H](NC(=O)C3CCOCC3)[C@@H](CO)O2)c1`, the cytotoxicity call in experiment [1] and in experiment [2] was “inactive” in each case. Further, the growth inhibition call in experiment [3] was “inactive”.
In the case of `C[C@H](CO)N1C[C@H](C)[C@@H](CN(C)Cc2ccc(-c3ccccc3)cc2)Oc2c(NC(=O)C3CC3)cccc2C1=O`, the cytotoxicity call in experiment [1] and in experiment [2] was “inactive” each time. Moreover, the growth inhibition call in experiment [3] is “inactive”.
As to `C[C@H](CO)N1C[C@H](C)[C@@H](CN(C)C(=O)Nc2ccc3c(c2)OCO3)Oc2ccc(NC(=O)c3ccncc3)cc2C1=O`, the cytotoxicity call in experiment [1] and in experiment [2] was “inactive” each time. Besides, the growth inhibition call in experiment [3] was “inactive”.
For `COc1cc(CN2CCC(C(=O)N[C@@H](c3ccc(F)cc3)c3ccc4ccccc4n3)CC2)cc(OC)c1`, in experiment [1], the cytotoxicity call was “inactive”. Moreover, the cytotoxicity call in experiment [2] was “active”. For the same compound, in experiment [3], the growth inhibition call is “inactive”.
Consider `C[C@H]1CN([C@@H](C)CO)C(=O)c2cc(-c3ccc(C(=O)N(C)C)cc3)cnc2O[C@@H]1CN(C)C(=O)C1CC1`, for which the cytotoxicity call in experiment [1] and in experiment [2] was “inactive” each time. Besides, the growth inhibition call in experiment [3] was “inactive”.
`C[C@H](CO)N1C[C@H](C)[C@@H](CN(C)C(=O)Nc2ccc(C(F)(F)F)cc2)Oc2c(NC(=O)Nc3ccc(F)cc3)cccc2C1=O`: the cytotoxicity call in experiment [1] and in experiment [2] was “inactive” throughout. The growth inhibition call in experiment [3] was “inactive”.
Consider `Cc1ccc(S(=O)(=O)Nc2ccc3c(c2)C(=O)N([C@H](C)CO)C[C@@H](C)[C@@H](CN(C)C(=O)CCC(F)(F)F)OCCCC[C@H](C)O3)cc1`, for which the cytotoxicity call in experiment [1] and in experiment [2] was “inactive” throughout. In experiment [3], the growth inhibition call was “inactive”.
For `COCCNC(=O)C[C@@H]1CC[C@@H](NS(=O)(=O)c2ccc(C)cc2)[C@@H](CO)O1`, the cytotoxicity call in experiment [1] and in experiment [2] was “inactive” throughout. Besides, the growth inhibition call in experiment [3] is “inactive”.
As to `C[C@@H]1CN([C@H](C)CO)C(=O)c2cc(NS(=O)(=O)c3ccc(F)cc3)ccc2O[C@@H](C)CCCCO[C@@H]1CN(C)C(=O)C1CCCCC1`, the cytotoxicity call in experiment [1] and in experiment [2] was “inactive” each time. Further, the growth inhibition call in experiment [3] is “inactive”.
For `C[C@@H]1CCCCO[C@@H](CN(C)Cc2ccc(Cl)c(Cl)c2)[C@@H](C)CN([C@H](C)CO)C(=O)c2cc(NS(=O)(=O)c3ccccc3)ccc2O1`, in experiment [1], the cytotoxicity call was “inactive”. The cytotoxicity call in experiment [2] is “active”. In addition, in experiment [3], the growth inhibition call is “inactive”.
For `Cn1cnc(S(=O)(=O)N[C@H]2C=C[C@@H](CC(=O)N3CCN(c4ccccc4)CC3)O[C@H]2CO)c1`, the cytotoxicity call in experiment [1] and in experiment [2] was “inactive” throughout. Moreover, the growth inhibition call in experiment [3] was “inactive”.
`C[C@H](CO)N1C[C@H](C)[C@@H](CN(C)CC2CCCCC2)Oc2ccc(NC(=O)CCCCCC(=O)Nc3ccccc3N)cc2C1=O`: the cytotoxicity call in experiment [1] is “inactive”. For the same compound, in experiment [2], the cytotoxicity call is “active”. Besides, the growth inhibition call in experiment [3] was “inactive”.
On to `COc1ccc(NC(=O)Nc2ccc3c(c2)C(=O)N([C@@H](C)CO)C[C@H](C)[C@H](CN(C)S(=O)(=O)c2cn(C)cn2)O3)cc1`, for which the cytotoxicity call in experiment [1] and in experiment [2] was “inactive” each time. Besides, in experiment [3], the growth inhibition call is “inactive”.
As for `C[C@@H]1CN([C@H](C)CO)C(=O)CCCn2cc(nn2)CO[C@@H]1CN(C)S(=O)(=O)c1ccc(C#N)cc1`, the cytotoxicity call in experiment [1] and in experiment [2] was “inactive” each time. Besides, the growth inhibition call in experiment [3] is “inactive”.
In the case of `C[C@H](CO)N1C[C@H](C)[C@H](CN(C)Cc2cccc3c2OCCCO3)OCc2ccccc2-c2ccccc2C1=O`, the cytotoxicity call in experiment [1] and in experiment [2] was “inactive” each time. In addition, the growth inhibition call in experiment [3] is “inactive”.
For the compound `Cc1ccc(S(=O)(=O)N(C)C[C@@H]2Oc3ccc(NS(=O)(=O)c4c(C)noc4C)cc3CC(=O)N([C@H](C)CO)C[C@@H]2C)cc1`, the cytotoxicity call in experiment [1] and in experiment [2] was “inactive” throughout. In addition, in experiment [3], the growth inhibition call is “inactive”.
For `COc1ccc2c3c([nH]c2c1)[C@@H](CO)N(Cc1ccccc1)C[C@]13CCN(CC1)C(=O)Nc1cccc(c1)F`, the cytotoxicity call in experiment [1] and in experiment [2] was “inactive” in each case. Further, the growth inhibition call in experiment [3] is “inactive”.
Take `COC(=O)[C@H]1CCCC[C@@H]1CN`: the cytotoxicity call in experiment [1] and in experiment [2] was “inactive” each time. Moreover, the growth inhibition call in experiment [3] was “inactive”.
Turning to `Cc1noc(C)c1NC(=O)Nc1ccc2c(c1)C(=O)N([C@H](C)CO)C[C@@H](C)[C@@H](CN(C)Cc1ccc(C(=O)O)cc1)OCCCC[C@H](C)O2`, the cytotoxicity call in experiment [1] and in experiment [2] was “inactive” throughout. Also, the growth inhibition call in experiment [3] is “inactive”.
Consider `COc1ccc(NC(=O)Nc2ccc3c(c2)C(=O)N([C@@H](C)CO)C[C@@H](C)[C@H](CN(C)Cc2ccc(Oc4ccccc4)cc2)O3)cc1`, for which the cytotoxicity call in experiment [1] and in experiment [2] was “inactive” each time. In addition, in experiment [3], the growth inhibition call was “inactive”.
On to `C[C@@H]1CN([C@@H](C)CO)C(=O)c2cccc(NC(=O)C3CCCCC3)c2O[C@H]1CN(C)Cc1ccc(C(F)(F)F)cc1`, for which the cytotoxicity call in experiment [1] and in experiment [2] was “inactive” each time. The growth inhibition call in experiment [3] was “inactive”.
Take `C[C@@H]1CN([C@@H](C)CO)C(=O)c2cc(NC(=O)Nc3ccc(C(F)(F)F)cc3)ccc2O[C@H]1CN(C)C(=O)Nc1ccc(F)cc1`: the cytotoxicity call in experiment [1] and in experiment [2] was “inactive” throughout. The growth inhibition call in experiment [3] is “inactive”.
With `[Fe+3].CC/1=C(CCC(=O)O)/C/2=C/c3[nH]c(c(c3CCC(=O)O)C)/C=C/3\N=C(/C=C/4\N=C(\C=C1/N2)C(=C4C)C=C)C(=C3C)C=C`, in experiment [1], the cytotoxicity call is “inactive”. Besides, the cytotoxicity call in experiment [2] is “active”. Further, in experiment [3], the growth inhibition call was “inactive”.
As to `Cc1noc(C)c1NC(=O)N(C)C[C@@H]1Oc2ccc(NC(=O)c3ccncc3)cc2CC(=O)N([C@H](C)CO)C[C@H]1C`, the cytotoxicity call in experiment [1] and in experiment [2] was “inactive” each time. In addition, in experiment [3], the growth inhibition call is “inactive”.
